Key:
in vitro = conditions: dog
[1] = test system: A/Puerto Rico/8/1934 (PR8; H1N1); assay: microbe, parasite or virus in culture; conditions: Influenza A virus, MDCK
[2] = test system: A/Hong Kong/8/1968 (HK; H3N2); assay: microbe, parasite or virus in culture; conditions: Influenza A virus, H3N2, MDCK
B/Lee/1940 (Lee) = assay: microbe, parasite or virus in culture; conditions: Influenza B virus, MDCK

SMILES | CC50 at 3 days (in vitro) [µM] | EC50 [1] [µM] | EC50 [2] [µM] | EC50 (B/Lee/1940 (Lee)) [µM]
CCC(CC)O[C@@H]1C=C(C(=O)O)C[C@H](N=C(N2C(=O)CC(C)C2=O)N2C(=O)CC(C)C2=O)[C@H]1NC(C)=O (stereo partly shown) [OSC-GCDI(M)] | > 100 | 0.04 ± 0.01 |  | 
CCC(CC)O[C@@H]1C=C(C(=O)O)C[C@H](N=C(N2C(=O)CCC2=O)N2C(=O)CCC2=O)[C@H]1NC(C)=O [OSC-GCDI(S)] | > 100 | 0.06 ± 0.01 | 0.03 ± 0.01 | 11.1 ± 1.2
NC(=O)c1ncn([C@@H]2O[C@H](CO)[C@@H](O)[C@H]2O)n1 [RBV, Ribavirin, reference compound] |  |  |  | 13.4 ± 0.95
